# Measurements: ChEMBL document CHEMBL1156829
# Over roughly 5,400 compounds, “IFI” has its median near 2; the highest 2% begin near 22. Some of the results follow.
# Assay: NOVARTIS: Inhibition Frequency Index (IFI) - the number of HTS assays where a compound showed > 50% inhibition/induction, expressed as a percentage of the number of assays in which the compound was tested.
# Assay type: functional
row,Compound,IFI
1,Cc1ccc(Nc2nc(NN=Cc3ccc(-c4ccc([N+](=O)[O-])cc4)o3)nc(N3CCOCC3)n2)cc1Cl,4.71%
2,CCCCC(=O)N(CCCC(C)Nc1cc(OC)cc2cccnc12)Cc1ccccc1OC (stereo not drawn),5.26%
3,CC(=O)N1CC(=NNC(=O)C(C)Nc2c(C)cccc2C)c2ccccc21 (stereo not drawn),0%
4,Cc1ccc(O)c(Nc2c3c(c(C#N)c4nc5ccccc5n24)CCC3)c1,14.3%
5,C#CC(C)(C)NC(=O)c1ccc(-c2ccc(CC)cc2)cc1,3.1%
6,N#Cc1nc(-c2ccccc2)c(-c2ccc(-c3nc(C#N)c(C#N)nc3-c3ccccc3)cc2)nc1C#N,7.14%
7,CC1CCN(c2nncc3ccccc23)CC1,0%
8,CCOc1ccc(Nc2nc(N)c3ccccc3n2)cc1,20.6%
9,Cc1ccc(NC(=O)c2cc3ccccc3oc2=O)nc1,9.2%
10,CCc1c(C#N)c(N)nc2sc(C(=O)c3ccc(Br)cc3)c(N)c12,0%
11,COc1cc([N+](=O)[O-])ccc1NC(=O)CN1CCN(C(=O)c2ccco2)CC1,0%
12,CCCCN(CCCC)S(=O)(=O)c1ccc(NC(=O)c2ccco2)cc1,0%
13,Cc1onc(-c2ccccc2)c1C(=O)N1CCC(CNc2c(-c3ccc(F)cc3)nc3ccccn23)CC1,5.56%
14,COC(=O)C1=C(C)NC2=C(C(=O)CC(c3ccccc3Cl)C2)C1c1ccc([N+](=O)[O-])cc1 (stereo not drawn),5.43%
15,CN(C)/C=C1\Oc2ccccc2N=C1Cl,2.63%
16,CCCN1CCC(c2nc(N3CCOCC3)ncc2-c2cc(C)no2)CC1,0%
17,CCC(=O)NCc1nc2ccccc2n1Cc1ccc(C)cc1,0%
18,CCCC[n+]1c(C=C2C=Cc3ccccc3N2CC)sc2ccccc21,11.1%
19,CC1CC(C)(C)NC(=S)N1CCC(=O)NCCc1ccccc1 (stereo not drawn),0%
20,O=C(CCc1ccccc1)NCCCCNc1ccnc2cc(Cl)ccc12,3.77%
21,CCCCOc1cccc(NC(=O)CSC2=C(C#N)C(c3ccccc3)C(C(=O)Nc3ccccc3)=C(C)N2)c1 (stereo not drawn),0%
22,CC(C)c1cccc(C(C)C)c1NC(=O)N(Cc1ccccc1)C(C)c1nc2ccccc2c(=O)n1-c1ccccc1 (stereo not drawn),1.87%
23,CCC(=O)NC(c1ccccc1Cl)c1cc(Cl)c2cccnc2c1O (stereo not drawn),15.4%
24,O=C1C(=Nc2cccc(C(F)(F)F)c2)c2ccccc2N1CN1CCc2ccccc2C1,0%
25,O=C1NC(=Nc2ccccc2)S/C1=C/c1ccc(F)c(Br)c1,2.3%
26,Fc1cccc(Nc2nc(NCC3CCCO3)c3ccccc3n2)c1 (stereo not drawn),4.54%

row,Compound,IFI
1,CC1C(Br)C(=O)C(Br)C(C)C12CCCC2 (stereo not drawn),0%
2,O=C(c1ccc2ccccc2c1)N1CCc2ccccc21,0%
3,Oc1cc(-c2ccccc2)nc2ccccc12,7.09%
4,Cc1noc(C)c1S(=O)(=O)N(Cc1ccccc1)CC(O)CN1CCC(NC(=O)c2ccccc2Cl)C1 (stereo not drawn),1.94%
5,CC(C)c1ccc(-c2cncc(N[C@@H](C)c3ccccc3)n2)cc1,0%
6,COc1ccc(CN(C)C(C)C)cc1OC1CCN(C(=O)C2CCC2)CC1,0.98%
7,Oc1ccc(-c2ccc3c(c2)OCO3)cc1CNCC1CC2C=CC1C21CC1 (stereo not drawn),1.71%
8,CC(C)(C)c1ccc(Oc2ccc(N3C(=O)C4CC=CCC4C3=O)cc2)cc1 (stereo not drawn),0%
9,COc1ccc(C2=C(c3ccc(OC)cc3)C3(c4ccccc4)C(=O)C2(c2ccccc2)C2C(=O)N(c4ccccc4)C(=O)C23)cc1 (stereo not drawn),0%
10,CC(=O)c1ccc(NC(=O)CN(C)S(=O)(=O)c2ccc3[nH]c4c(c3c2)CCCC4)cc1,0%
11,COc1ccc(-c2cn3c([n+]2-c2ccccc2)SCC3)cc1,2.73%
12,CCN(CC)CCNC(=O)c1cc(-c2cc3ccccc3s2)cc(-n2cnnn2)c1,4.24%
13,Cc1ccc(C[n+]2cc(-c3ccc(F)cc3)n3c2CCC3)cc1,2.38%
14,CC[n+]1c(/C=C2\Sc3cc(C)ccc3N2CCO)ccc2ccccc21,15.4%
15,COC(C(=NO)c1ccc(Cl)cc1)c1ccccc1 (stereo not drawn),0%
16,COc1cc(C=NNC(=O)c2cccc3ccccc23)ccc1OCC(N)=O,0%
17,CCCCCN(CCCCC)C(O)c1cc2c(c3ccccc13)CCCC2 (stereo not drawn),1.82%
18,Oc1ccc(-c2nc3ccccc3s2)cc1CN1CCCCC1,12%
19,CCCN(CCC)CCNC(=O)c1cc2c(-c3ccc(Cl)cc3)nn(C)c2s1,0%
20,N#Cc1cc(C#N)c(N2CCN(c3cccc(Cl)n3)CC2)nc1N,6.58%
21,CCc1ccccc1NC(C)=O,1.04%
22,CC(C)(C)c1csc(NC(=O)c2ccc(S(=O)(=O)N3CCCCC3)cc2)n1,3.37%
23,CCN1c2ccc([N+](=O)[O-])cc2N(CC)C1(C)c1ccccc1 (stereo not drawn),0%
24,CCc1ccc(C(=O)N(CCc2ccccc2)C(CC)c2nc3ccccc3c(=O)n2-c2ccccc2OC)cc1 (stereo not drawn),3.85%
25,COc1cccc(CCOc2ccc3c(c2)C(=O)N(C(CC(C)C)C(=O)NC2CCN(Cc4ccccc4)CC2)[C@@H](Cc2ccc(O)cc2)C(=O)N3)c1 (stereo partly drawn),4.72%
26,CCCC1=[N+](CC(=O)c2ccc(C)cc2)CCn2c(C)ccc21,5.75%

row,Compound,IFI
1,CC[n+]1cc(C)ccc1C=Cc1ccc(N(C)C)cc1,7.69%
2,COc1cccc(C=NNC(=O)c2ccccc2O)c1O,7.69%
3,N#Cc1ccc(NC(=O)CCCC(=O)O)cc1,2.54%
4,NCCCNc1ncc(C(=O)NCc2ccccc2)c(NCC2CCCCC2)n1,1.94%
5,CCOc1ccc(Br)cc1/C=C1\SC(=Nc2ccccc2CC)N(c2ccccc2CC)C1=O,0%
6,CCCc1nc2ccc(NC(=O)c3ccccc3F)cc2c(=O)n1Cc1ccc(-c2ccccc2)cc1,7.27%
7,COc1ccccc1CN1CCC(S(=O)(=O)c2ccccc2)CC1,4.11%
8,O=[N+]([O-])c1cccc2c(S(=O)(=O)NCCCN(CCO)CCO)cccc12,0%
9,Oc1ccc(-c2ccccn2)cc1CNC1CCN(Cc2ccccc2)CC1,0.855%
10,CCOC(=O)c1[nH]nc(C(=O)c2ccccc2)c1-c1ccccc1,1.83%
11,c1ccc(CCNc2ncnc3c2[nH]c2ccccc23)cc1,21.9%
12,Cc1ccc(NC(=O)c2ccc(NCCCN3CC(C)CC(C)C3)c([N+](=O)[O-])c2)cc1F (stereo not drawn),0%
13,CCOc1cccc(Nc2cc(C)nc3ncnn23)c1,0%
14,Cc1cc(-c2cncnc2C2CCN(C(=O)c3cc(C(C)C)n[nH]3)CC2)on1,0%
15,COC(=O)C1=CNC=C(C(=O)OC)C1c1ccc(Cl)c([N+](=O)[O-])c1,2.35%
16,Cc1cccc(C)c1NC(=O)C(O)c1ccc(Cl)cc1Cl (stereo not drawn),0%
17,COc1ccc(-c2nc(CN3CCCCC3)ccc2O)cc1,0%
18,CCCCCCc1ccc(C(=O)N(C)CCCNc2ccnc3cc(Cl)ccc23)cc1,4.21%
19,COc1cc(C2Nc3ccc4ccccc4c3C3=C2C(=O)CC(C)(C)C3)ccc1Oc1ccc([N+](=O)[O-])cc1C(F)(F)F (stereo not drawn),0%
20,COc1cc(CN(C)c2ccc3nc(N)nc(N)c3c2)cc(OC)c1OC,15.4%
21,C=C(C[N+](C)(C)C)c1ccc([N+](=O)[O-])cc1,0.746%
22,CCC(CC)C(=O)Nc1c2c(nn1-c1cccc(Cl)c1)C[S+]([O-])C2 (stereo not drawn),0%
23,COc1ccc(OCC(=O)Nc2c(C)n(C)n(-c3ccccc3)c2=O)cc1,0%
24,Cc1oc2c(c1C(=O)N1CCC(C)CC1)C(=O)c1ccccc1C2=O,15.4%
25,O=C(/C=C/c1ccc(Br)cc1)NC(=O)c1ccccc1O,0%
26,O=C(NCCCN1CCCC1=O)c1cccn2c(=O)c3ccc(Cl)cc3nc12,2.78%

row,Compound,IFI
1,COc1cc(/C=C(\C#N)c2nc3ccccc3[nH]2)ccc1OCc1ccccc1,0%
2,CCN(CC)CCCC(C)Nc1nc(/C=C/c2ccccc2OC)nc2cc(Cl)ccc12 (stereo not drawn),9.09%
3,O=C(COc1ccccc1)NC(c1ccco1)c1cc(Cl)c2cccnc2c1O (stereo not drawn),4.17%
4,CC[n+]1c(/C=C(C)/C=C2\Sc3ccccc3N2CCO)sc2ccccc21,7.69%
5,O=C(Cc1ccccc1)NCCCCNc1ccnc2cc(Cl)ccc12,4.81%
6,CCc1nc2nc(C)cc(Nc3ccc(F)c(Cl)c3)n2n1,0%
7,COC(=O)[C@@H]1C[C@@H](NC(=O)c2ccc(OC)cc2OC)CN1CC(c1ccccc1)c1ccccc1,1.44%
8,C=CCC(=O)NC1CCN(CC(O)CN(Cc2ccccc2)S(=O)(=O)c2ccccc2)C1 (stereo not drawn),2.91%
9,CSc1oc(C(C)(C)C)nc1[P+](c1ccccc1)(c1ccccc1)c1ccccc1,23.2%
10,O=[N+]([O-])c1cccc2c1nnn2C12CC3CC(CC(O)(C3)C1)C2,0%
11,CCC(C)(C#CCN1CCCC1)OC(C)=O (stereo not drawn),0%
12,Cc1cc(N2CCN(C3CCCC3)CC2)n2c(nc3ccccc32)c1C#N,4.71%
13,COc1ccc(CN2CCc3nnc(CCc4ccccc4)n3CC2)c(F)c1,0%
14,COc1ccc(CCN2C(=O)c3ccc(Oc4ccc(NC(=O)c5oc(=O)c6ccccc6c5-c5ccccc5)cc4)cc3C2=O)cc1OC,0%
15,CCCOC(=O)C1=C(C)NC2=C(C(=O)CCC2)C1c1cc(Br)c(O)c(OCC)c1 (stereo not drawn),3.45%
16,Cc1c(Cl)cccc1NC(=O)c1cccnc1Cl,15.4%
17,CCC(/C=C1\Sc2ccc(OC)cc2N1CCCS(=O)(=O)O)=C\c1sc2ccc(OC)cc2[n+]1CCCS(=O)(=O)O,22.7%
18,Cc1cccc(N(C)c2ccnc3c(-c4cccc(C(N)=O)c4)cnn23)c1,4.35%
19,O=C(CCC1CCCN(C(=O)c2ccsc2)C1)N1CCN(c2ccccn2)CC1 (stereo not drawn),0%
20,"GNF-Pf-1437, CHEMBL576411",14.3%
21,COc1ccc(C2C(C(=O)Nc3cccc(C(F)(F)F)c3)c3ccccc3C(=O)N2C2CCCCC2)cc1 (stereo not drawn),0%
22,c1ccc(-c2cccc(-c3ccccn3)n2)nc1,21.6%
23,COc1ccc(/C=C/c2ccc3ccccc3[n+]2C)cc1,10.6%
24,CC(C)CN1C(=O)c2ccccc2C(C(=O)Nc2ccccc2F)C1c1cccs1 (stereo not drawn),3.03%
25,COc1ccccc1NC(=O)c1cnn(-c2ccccc2)c1-n1cccc1,0%
